Assay results reported in US20240287186A1.

Experiments:
[1] = target: CD3 (target of Table E-1) (UniProt P07766); assay: Biacore (SPR; format not stated)
[2] = target: CD3 (target of Table E-1) (UniProt P07766); assay: FACS (cells not stated)

| Kd [1] [nM] | EC50 [2] [nM] | Binder |
| --- | --- | --- |
| 0.0383 | – | Anti-CD3 Fab 7195P (Fab, V domains shown) VH: EVQLVESGGGLVQPGRSLRLSCAASGFTFADYTMHWVRQAPGKGLEWVSDISWNSGSIAYADSVKGRFTISRDNAKNSLYLQMNSLRTEDTAFYYCAKDSRGYGHYKYLGLDVWGQGTTVTVSS VL: [in this place about 100 residues] |
| 24.9 | 13 | Anti-CD3 Fab 7221G (Fab, V domains shown) VH: EVQLVESGGGLVQPGRSLRLSCAASGFTFDDYSMHWVRQAPGKGLEWVSGISWNSGSKGYADSVKGRFTISRDNAKNSLYLQMNSLRAEDTALYYCAKYGSGYGKFYHYGLDVWGQGTTVTVSS VL: [in this place about 100 residues] |
| 320 | 540 | Anti-CD3 Fab 7221G20 (Fab, V domains shown) VH: EVQLVESGGGLVQPGRSLRLSCAASGFTFDDYSMHWVRQAPGKGLEWVSGISWNSGSIGYADSVKGRFTISRDNAKNSLYLQMNSLRAEDTALYYCAKYGSGYGKFYYYGMDVWGQGTTVTVSS VL: [in this place about 100 residues] |
